# Test results reported in the supplement of paper PMC3334620.
# The full ranking holds about 33,000 sequences; the median of “E-score (-0.5 to 0.5)” is about -0.043, and the highest 2% start at about 0.37. Some of the results follow.
# Molecular target: T1, Upc2 (UniProt Q12151)
# T1 sequence: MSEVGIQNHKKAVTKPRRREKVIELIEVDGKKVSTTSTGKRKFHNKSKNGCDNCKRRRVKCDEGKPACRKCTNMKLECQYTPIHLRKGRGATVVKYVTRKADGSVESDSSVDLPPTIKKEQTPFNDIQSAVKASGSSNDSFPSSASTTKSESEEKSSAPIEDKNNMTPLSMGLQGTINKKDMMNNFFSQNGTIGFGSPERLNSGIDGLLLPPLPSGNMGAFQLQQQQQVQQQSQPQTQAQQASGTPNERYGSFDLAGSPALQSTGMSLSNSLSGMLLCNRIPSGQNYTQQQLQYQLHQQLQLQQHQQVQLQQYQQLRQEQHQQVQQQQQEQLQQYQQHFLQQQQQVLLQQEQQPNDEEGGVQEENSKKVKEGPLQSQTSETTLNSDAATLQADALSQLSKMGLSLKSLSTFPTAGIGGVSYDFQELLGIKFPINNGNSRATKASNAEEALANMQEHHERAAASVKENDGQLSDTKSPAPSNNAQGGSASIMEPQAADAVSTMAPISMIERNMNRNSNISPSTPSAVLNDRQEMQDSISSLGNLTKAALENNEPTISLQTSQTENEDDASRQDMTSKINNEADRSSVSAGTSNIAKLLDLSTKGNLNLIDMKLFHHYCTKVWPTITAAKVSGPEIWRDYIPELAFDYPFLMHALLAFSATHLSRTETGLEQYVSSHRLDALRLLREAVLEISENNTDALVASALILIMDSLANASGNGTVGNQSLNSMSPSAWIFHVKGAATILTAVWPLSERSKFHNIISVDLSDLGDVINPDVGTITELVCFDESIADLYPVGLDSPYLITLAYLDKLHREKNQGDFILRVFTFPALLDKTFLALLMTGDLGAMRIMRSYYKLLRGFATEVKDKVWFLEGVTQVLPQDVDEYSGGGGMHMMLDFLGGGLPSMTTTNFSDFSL
# Assay: PBM E-score (8-mer binding enrichment) (E-score (-0.5 to 0.5)); higher = stronger / more preferred TF binding; most listed sequences are background and not binding sites
# Details: protein concentration: 200 nM; construct: GST-full length
# Summary of the method: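 Full-length yeast transcription factors or their DNA-binding domains, GST-tagged and expressed with PURExpress, were applied at about 100-200 nM to universal all-10-mer Agilent arrays. These arrays had been made double-stranded by primer extension on fresh or once-stripped slides. Detection used fluorescent anti-GST, normalisation used masliner, and E-scores for ungapped eight-base words pooled with reverse complements came from the Universal PBM Analysis Suite.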
row,Sequence,PBM E-score
1,TCAGGGGA,-0.218
2,AAATCTCG,0.21
3,AGTCCCAT,-0.163
4,TCTGTCCA,-0.242
5,CAGTGAGG,-0.344
6,GGTTCGAA,0.0921
7,CCTCTCAA,-0.206
8,CCCCGCAA,0.0809
9,CCACCTTC,-0.0912
10,ATGTGCGC,-0.0671
11,CAGTGGAG,-0.16
12,CGGCTTCA,-0.0262
13,AGGCGTAG,-0.272
14,CGCTCGGC,0.0396
15,CCCGACCA,-0.0401
16,ACAAGCAG,-0.19
17,CACTTGCG,-0.173
18,ACGGACGT,0.116
19,CAATTGCA,-0.0211
20,GATGAGCA,-0.186
21,AATAGAAA,-0.156
22,CACAAAGC,-0.142
23,GTCCGCAC,-0.113
24,ACGTTACA,0.0891
25,AACAGCGG,-0.068

row,Sequence,PBM E-score
1,TCTCGAAA,0.159
2,CGGGCTAG,-0.117
3,GGTGGAAC,0.184
4,TGCGGAAA,-0.00475
5,CACTAGAG,-0.186
6,AGTCGCGG,-0.0796
7,ACATATCC,-0.0597
8,GAGCCTCC,-0.0602
9,TAGATGCA,0.033
10,ACTGTTCC,-0.00914
11,AAGTCCCG,-0.135
12,AAATTGTC,-0.0682
13,ACGAGAAA,0.349
14,AGCTTTGC,-0.0852
15,AAGTTAAT,-0.0268
16,ACCCAACT,0.0275
17,AACCCCGC,-0.0131
18,AATGCTCG,0.179
19,CAAAAACA,0.0635
20,AATTGTTA,0.00213
21,CAATAAAC,0.158
22,CCCTTCCA,-0.32
23,GATTGAAC,0.0493
24,ACGATATC,0.345
25,AACGAATC,0.39

row,Sequence,PBM E-score
1,TACATGCA,0.121
2,ACCGATCA,0.0559
3,ACTTTGCA,0.0101
4,CCGTGTTC,0.0457
5,TACTCAAA,0.00677
6,CCAGCCTA,-0.259
7,ATTGGTAC,0.0441
8,CACTTCTG,-0.309
9,CATTTTTA,-0.0383
10,AGCTGCTA,-0.262
11,CACTAATC,-0.00017
12,GCTACGAC,0.379
13,CATGAGTC,-0.0488
14,TAGAGCCA,-0.159
15,AATGAATC,-0.122
16,CTGGAAAC,0.139
17,GCTACACA,-0.138
18,AACGACTC,0.401
19,CAGCGCGC,-0.0787
20,ACCGGCAG,-0.183
21,CTATTCCC,-0.346
22,ATTGGGAA,0.0278
23,TGCTTTAA,0.153
24,GACGTTCA,0.0943
25,GCGGCCCA,-0.129

row,Sequence,PBM E-score
1,CTACATTC,-0.127
2,GGAAAACC,-0.0101
3,GCCCGTCA,-0.3
4,CATCCATC,-0.167
5,GCGTCGAC,-0.0524
6,GTTCTTGA,0.12
7,CCCTTACA,-0.0928
8,CCGAGTGC,-0.0549
9,AATCCTGA,-0.098
10,CATGTTCA,-0.294
11,ATTAGTAA,0.0479
12,ATCGTTCG,0.384
13,GAGCCCTA,-0.239
14,CACGAATC,0.0313
15,CGTATACA,0.474
16,CCTTGACA,-0.272
17,CTTTTTGA,-0.112
18,ACATATCT,-0.0474
19,ACTTAGCC,-0.227
20,CGCTGTTA,-0.0569
21,AATGTGTG,-0.0172
22,AGTGGGTG,-0.107
23,AACCCTGG,-0.00894
24,ATTGTGTA,0.0951
25,AGAGTCAG,-0.0459

row,Sequence,PBM E-score
1,AGCAGGAG,-0.116
2,GTGTCGAA,-0.0801
3,AACAAAGG,-0.201
4,CCGACTTA,0.0676
5,CCACCACA,-0.259
6,AACCTAAA,0.134
7,AGATGATA,-0.113
8,AGGTACGA,0.47
9,GAAGCCAC,-0.0549
10,AAACAGCT,-0.0425
11,GAAGCAGA,-0.244
12,GATGAATA,-0.041
13,CACACTTC,-0.0815
14,CATTGCCG,0.0539
15,AGTAGACA,0.00194
16,CCCGTCAA,-0.082
17,GTCGTCCA,-0.144
18,ACATATGA,0.0385
19,AGGGTTAG,-0.0409
20,CGGACTCC,-0.209
21,AAGACCGG,-0.189
22,CCTCAGGC,-0.156
23,ACCCTTAC,-0.0285
24,CGATAAAA,0.17
25,AACCTTGC,-0.22

row,Sequence,PBM E-score
1,CTTTCAAC,-0.0326
2,AAATACAC,0.107
3,CAACTGCA,-0.048
4,CAGCTAGG,-0.352
5,CACGTCTG,-0.155
6,ACGTCACA,-0.00504
7,CGATATAG,0.157
8,CGGTGAAC,0.16
9,GGGCGACC,-0.263
10,GCGGAACA,-0.124
11,ATTATGAC,0.0106
12,CGGGACCC,-0.177
13,CTTGAGGA,-0.276
14,CTTTGTTA,0.0474
15,CACGCTCG,0.185
16,AGCGCCCC,-0.276
17,ACCCGTCA,-0.119
18,AGTGCAAA,0.065
19,GTGAGCAC,-0.201
20,CAGGTGCA,-0.26
21,CAACATAA,0.0635
22,CAAATCGG,-0.0502
23,AATGGGAC,-0.328
24,CACGATCG,0.125
25,TATATATA,0.118

row,Sequence,PBM E-score
1,ATGCATGG,-0.0939
2,AGGGAATA,-0.0671
3,ACAAGGAC,-0.21
4,CGTTATTA,0.181
5,CTCGTCTC,0.132
6,AGACCTCC,-0.202
7,ACGTACGC,0.254
8,CAAGCATC,-0.297
9,GTAAGTTA,0.0587
10,ATCTGGTA,0.044
11,CCTACGGA,-0.328
12,GCCGTTTA,0.465
13,CGTTTGTA,0.355
14,GAAGTGGC,-0.152
15,AGGCGCTG,-0.00127
16,ATGTTCAC,-0.167
17,CCGACATC,0.0602
18,CTCTTCAG,-0.115
19,CATGCTCC,-0.0889
20,AGTGCGGG,-0.133
21,AGAACAGA,-0.129
22,CTTTTGAC,-0.0731
